{
  "source": "paper PMC4336329",
  "about": "(PLoS ONE, 2015)",
  "note": "The whole screen tested about 310,000 compounds, of which about 2,200 (0.71%) showed an effect of 50% or more. Effects have a minus sign here. The list shows a part of the results.",
  "data": [
    {"molecular_target": "human ether-à-go-go-related gene (hERG) potassium channel (human, UniProt Q12809)", "sequence (Q12809 whole entry, looked up)": "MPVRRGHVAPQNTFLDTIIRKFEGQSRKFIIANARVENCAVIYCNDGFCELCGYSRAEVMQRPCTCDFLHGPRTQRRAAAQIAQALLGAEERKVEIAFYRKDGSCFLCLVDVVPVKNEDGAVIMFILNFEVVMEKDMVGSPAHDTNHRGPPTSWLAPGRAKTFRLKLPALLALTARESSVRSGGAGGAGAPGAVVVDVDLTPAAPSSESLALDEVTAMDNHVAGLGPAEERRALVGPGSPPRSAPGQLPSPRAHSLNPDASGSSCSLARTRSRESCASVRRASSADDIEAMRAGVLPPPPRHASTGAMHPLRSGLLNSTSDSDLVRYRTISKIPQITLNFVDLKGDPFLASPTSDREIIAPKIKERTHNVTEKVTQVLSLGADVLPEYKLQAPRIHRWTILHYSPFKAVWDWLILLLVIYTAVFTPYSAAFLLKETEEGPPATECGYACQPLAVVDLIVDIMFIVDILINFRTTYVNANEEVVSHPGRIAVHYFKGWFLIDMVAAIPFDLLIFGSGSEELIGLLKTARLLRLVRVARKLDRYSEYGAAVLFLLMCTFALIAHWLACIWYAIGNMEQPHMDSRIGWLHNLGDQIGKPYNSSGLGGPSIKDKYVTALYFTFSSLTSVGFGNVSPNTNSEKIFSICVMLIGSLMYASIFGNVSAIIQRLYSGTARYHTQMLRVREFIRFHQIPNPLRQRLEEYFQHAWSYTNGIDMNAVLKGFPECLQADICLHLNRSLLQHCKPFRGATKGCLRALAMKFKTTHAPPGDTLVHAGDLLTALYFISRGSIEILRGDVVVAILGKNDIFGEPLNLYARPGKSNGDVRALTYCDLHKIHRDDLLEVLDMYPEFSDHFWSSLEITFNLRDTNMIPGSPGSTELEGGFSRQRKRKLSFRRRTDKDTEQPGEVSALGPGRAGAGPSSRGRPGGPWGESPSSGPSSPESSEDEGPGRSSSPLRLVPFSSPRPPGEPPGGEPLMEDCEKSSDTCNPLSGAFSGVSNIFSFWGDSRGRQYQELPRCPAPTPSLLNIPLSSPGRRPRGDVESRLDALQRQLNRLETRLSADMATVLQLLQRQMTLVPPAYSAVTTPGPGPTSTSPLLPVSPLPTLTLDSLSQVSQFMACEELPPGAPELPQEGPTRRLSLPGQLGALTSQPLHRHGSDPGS", "assay": "primary screen, population patch clamp on CHO cells stably expressing hERG", "units": {"hERG current change (%, negative = inhibition) at 1uM": "%"}, "values": [
      {"smiles": "COC(=O)c1c(C)nc2ccccc2c1C(=O)O", "hERG current change (%, negative = inhibition) at 1uM": 12.5},
      {"smiles": "O=C(Cc1csc(-c2ccc(F)cc2)n1)Nc1cccc(S(=O)(=O)NC2=NCCC2)c1", "hERG current change (%, negative = inhibition) at 1uM": 2.99},
      {"smiles": "Cc1cc2c(c(=O)o1)C(c1ccc([N+](=O)[O-])o1)C(C#N)=C(N)O2", "note": "(stereo not shown)", "hERG current change (%, negative = inhibition) at 1uM": 4.84},
      {"smiles": "CC(/C=N/NC(=O)c1cnccn1)=C\\c1ccco1", "hERG current change (%, negative = inhibition) at 1uM": 8.74},
      {"smiles": "CCOC(=O)Cc1csc(SCC(=O)NC(C)C23CC4CC(CC(C4)C2)C3)n1", "note": "(stereo not shown)", "hERG current change (%, negative = inhibition) at 1uM": 2.08},
      {"smiles": "O=C(CCCNC(=O)c1ccc(Cl)cc1)Nc1cccc(S(=O)(=O)N2CCCCC2)c1", "hERG current change (%, negative = inhibition) at 1uM": 6.48},
      {"smiles": "O=S(=O)(c1ccccc1)N1CCN(C(=S)Nc2ccc(Br)cc2)CC1", "hERG current change (%, negative = inhibition) at 1uM": 14.5},
      {"smiles": "Cc1ccccc1C(=O)NC1CCN(Cc2nnnn2Cc2ccc(F)cc2)CC1", "hERG current change (%, negative = inhibition) at 1uM": -10.8},
      {"smiles": "FC(F)(F)c1ccc(CN2CCN(Cc3ccco3)CC2)cc1.O=C(O)C(=O)O", "hERG current change (%, negative = inhibition) at 1uM": 7.41},
      {"smiles": "Cc1ccc(S(=O)(=O)Nc2ccccc2F)cc1C(=O)N1CCCC1", "hERG current change (%, negative = inhibition) at 1uM": 8.68},
      {"smiles": "CCN(CC(=O)N1CCCC1)S(=O)(=O)c1cc(C)ccc1OC", "hERG current change (%, negative = inhibition) at 1uM": 14.8},
      {"smiles": "Cc1ccc(C(C(=O)NC(C)(C)C)N(C(=O)c2csnn2)c2cccc(F)c2)o1", "note": "(stereo not shown)", "hERG current change (%, negative = inhibition) at 1uM": 11.6},
      {"smiles": "Cc1ccn2c(=O)nc(SCC(=O)NC3CCCCC3)nc2c1", "hERG current change (%, negative = inhibition) at 1uM": 2.62},
      {"smiles": "Cc1cc(/C=C2/C(=O)NC(=O)N(C)C2=O)c(C)n1-c1ccccc1", "hERG current change (%, negative = inhibition) at 1uM": 12.1},
      {"smiles": "O=C(NC1CC1)c1ccc(COc2ccc(F)cc2)o1", "hERG current change (%, negative = inhibition) at 1uM": 11.8},
      {"smiles": "O=C(Nc1nc2ccccc2s1)c1ccc(N2CCCCC2)c([N+](=O)[O-])c1", "hERG current change (%, negative = inhibition) at 1uM": 9.52},
      {"smiles": "Cn1c(SCC(=O)NC2CC2)nnc1-c1ccco1", "hERG current change (%, negative = inhibition) at 1uM": 16.3},
      {"smiles": "CCn1cc(C(=O)NCCCN2CCCCCC2)c(=O)c2cc(S(=O)(=O)N3CCc4ccccc4C3)ccc21", "hERG current change (%, negative = inhibition) at 1uM": -24.5},
      {"smiles": "O=C(NCCN1CCOCC1)c1ccccc1Oc1ccccc1", "hERG current change (%, negative = inhibition) at 1uM": -4.89},
      {"smiles": "CCc1ccc(NC(=O)CCNS(=O)(=O)c2cccc3nonc23)cc1", "hERG current change (%, negative = inhibition) at 1uM": 25.5},
      {"smiles": "COC(=O)CNC(=O)CN1C(=O)N(c2ccc(Cl)cc2)C(N(O)C(=O)Nc2ccc(Cl)cc2)C1(C)C", "note": "(stereo not shown)", "hERG current change (%, negative = inhibition) at 1uM": 9.64},
      {"smiles": "O=C(NC(=O)c1ccc(Cl)cc1)Nc1ccc(-c2cnco2)cc1", "hERG current change (%, negative = inhibition) at 1uM": 12},
      {"smiles": "Cc1nc2c(C)cccc2c2c1COC2", "hERG current change (%, negative = inhibition) at 1uM": 14},
      {"smiles": "Cl.O=S(=O)(NCCN1CCOCC1)c1ccc(F)c(Cl)c1", "hERG current change (%, negative = inhibition) at 1uM": 13.5},
      {"smiles": "NC(=O)c1ccc(NC(=O)CN2CCOCC2)cc1", "hERG current change (%, negative = inhibition) at 1uM": 17},
      {"smiles": "O=c1oc2c3c(nn2c2ccccc12)CCCC3", "hERG current change (%, negative = inhibition) at 1uM": 9.68},
      {"smiles": "COC(=O)c1cc(NC(=O)CC2Oc3ccccc3NC2=O)cc(C(=O)OC)c1", "note": "(stereo not shown)", "hERG current change (%, negative = inhibition) at 1uM": 13},
      {"smiles": "Cc1ccccc1-c1nc2ccccc2c(=O)n1/N=C/c1ccccc1[N+](=O)[O-]", "hERG current change (%, negative = inhibition) at 1uM": 5.94},
      {"smiles": "Cc1ccc(/C=N/N2CCN(c3ccccn3)CC2)cc1", "hERG current change (%, negative = inhibition) at 1uM": 12.2},
      {"smiles": "Nc1sc2c(c1C(=O)c1ccccc1)CCCC2", "hERG current change (%, negative = inhibition) at 1uM": -13.8},
      {"smiles": "COc1ccc(C(=O)c2no[n+]([O-])c2C(=O)c2ccc(OC)cc2)cc1", "hERG current change (%, negative = inhibition) at 1uM": -10},
      {"smiles": "Cn1c(=O)c2c(ncn2CC(=O)N2CCN(c3ccc([N+](=O)[O-])cc3)CC2)n(C)c1=O", "hERG current change (%, negative = inhibition) at 1uM": -69.6},
      {"smiles": "CC(C)[C@@H](COc1ccccc1)N1CCN(Cc2ccccc2)CCC1=O", "hERG current change (%, negative = inhibition) at 1uM": 0.973},
      {"smiles": "O=C(C1=C(O)C(=O)N(CCN2CCOCC2)C1c1cccc(Br)c1)c1cccs1", "note": "(stereo not shown)", "hERG current change (%, negative = inhibition) at 1uM": 7.09},
      {"smiles": "CCOc1ccc(C(NC(C)=O)c2ccc(OC)c(OC)c2)cc1", "note": "(stereo not shown)", "hERG current change (%, negative = inhibition) at 1uM": 11.1},
      {"smiles": "O=C(COC(=O)c1ccc(O)cc1)Nc1cccc(S(=O)(=O)NC2=NCCC2)c1", "hERG current change (%, negative = inhibition) at 1uM": 13.7},
      {"smiles": "Cc1ccc(CN(C(=O)c2cc(=O)c3cc(Cl)c(C)cc3o2)C2CCS(=O)(=O)C2)cc1", "note": "(stereo not shown)", "hERG current change (%, negative = inhibition) at 1uM": 3.73},
      {"smiles": "Cc1cccc(-c2ccc3ncnc(NCc4cccs4)c3c2)c1", "hERG current change (%, negative = inhibition) at 1uM": 9.92},
      {"smiles": "CNC(=O)c1nc(C)n(-c2ccc(Cl)cc2Cl)n1", "hERG current change (%, negative = inhibition) at 1uM": 5.45},
      {"smiles": "CCOC(=O)CSc1nc2ccc(N3CCOCC3)cc2c(=O)n1Cc1ccccc1", "hERG current change (%, negative = inhibition) at 1uM": 5.21},
      {"smiles": "CCC(C(=O)OCC(=O)N1CCN(S(=O)(=O)c2ccc(C)cc2C)CC1)c1ccccc1", "note": "(stereo not shown)", "hERG current change (%, negative = inhibition) at 1uM": -2.2},
      {"smiles": "CC(=NCC1CCCO1)C1=C(O)CC(C)(C)CC1=O", "note": "(stereo not shown)", "hERG current change (%, negative = inhibition) at 1uM": -6.56},
      {"smiles": "O=C(CCCc1cccs1)Nc1nc(-c2ccc(F)cc2)cs1", "hERG current change (%, negative = inhibition) at 1uM": 12},
      {"smiles": "O=C(O)c1ccc(NCc2nc3ccccc3n2Cc2ccccc2F)cc1", "hERG current change (%, negative = inhibition) at 1uM": 11.7},
      {"smiles": "CC(=O)OCC1OC(OCc2cn(C[C@H]3CC[C@@H]([C@@H]4CC[C@H](Cn5cc(COC6OC(COC(C)=O)C(OC(C)=O)C(OC(C)=O)C6OC(C)=O)nn5)O4)O3)nn2)C(OC(C)=O)C(OC(C)=O)C1OC(C)=O", "note": "(stereo partly shown)", "hERG current change (%, negative = inhibition) at 1uM": 4.63},
      {"smiles": "O=C(O)CCc1ccc(-c2ccccc2)n1NC(=O)c1ccco1", "hERG current change (%, negative = inhibition) at 1uM": 14.5},
      {"smiles": "Cc1cc(Cl)ccc1NC(=S)NC1CCCC1", "hERG current change (%, negative = inhibition) at 1uM": 12.9},
      {"smiles": "COc1ccc(S(=O)(=O)N2CC=C(C(=O)NC3CCCC3)CC2)cc1", "hERG current change (%, negative = inhibition) at 1uM": 8},
      {"smiles": "COc1ccc(NC2=NCC(=O)N2Cc2cccs2)cc1.Cl", "hERG current change (%, negative = inhibition) at 1uM": 0.573},
      {"smiles": "COc1ccc(C(=O)C=CNNC(=O)c2ccc(Cl)cc2)cc1", "hERG current change (%, negative = inhibition) at 1uM": 17.6},
      {"smiles": "CCCCNC(=O)CSc1nc2cc3c(cc2c(=O)n1CCCN(CC)CC)OCO3", "hERG current change (%, negative = inhibition) at 1uM": -36},
      {"smiles": "COC(=O)Cc1cc(=O)[nH]c(Nc2nc3ccccc3o2)n1", "hERG current change (%, negative = inhibition) at 1uM": -7.47},
      {"smiles": "COc1cccc(-c2noc(CCC(=O)NC3CCCCC3)n2)c1", "hERG current change (%, negative = inhibition) at 1uM": 0.894},
      {"smiles": "CN(C)C(=O)On1c(-c2ccccc2)nc2ccc(Cl)cc21", "hERG current change (%, negative = inhibition) at 1uM": -8.66},
      {"smiles": "Cc1ccccc1C(=O)Nc1ccc2c(C#N)c3nc4ccccc4nc3n2c1", "hERG current change (%, negative = inhibition) at 1uM": 7.67}
    ]}
  ]
}
